Source: patent US20180362668A1 (JIANGSU ALPHAMAB BIOPHARMACEUTICALS, published 2018)

B1: VhH-Fc fusion protein chain B with D356C + T366S + L368A + Y407V (Fc fusion)
chain: QVQLQESGGGSVQAGGSLRLSCAASEYIYSSYCMAWFRQAPGKEREGVAVIGSDGSTSYADSVKGRFTISKDNAKNTLYLQMNSLKPEDTAMYYCAAIGGYCYQPPYEYQYWGQGTQVTVSS[letters of human IgG1 Fc with changes omitted]
notes: Positions are EU index; also called combination 2 chain B (VhH-Fc format)
B2: VhH-Fc fusion protein chain B with T366S + L368A + Y407V + K409A + K392D (Fc fusion)
chain: QVQLQESGGGSVQAGGSLRLSCAASEYIYSSYCMAWFRQAPGKEREGVAVIGSDGSTSYADSVKGRFTISKDNAKNTLYLQMNSLKPEDTAMYYCAAIGGYCYQPPYEYQYWGQGTQVTVSS[letters of human IgG1 Fc with C220S T366S L368A K392D Y407V K409A (EU numbers) omitted]
notes: Positions are EU index; also called combination 15 chain B
B3: VhH-Fc fusion protein chain B with T366S + L368A + Y407V + K409A + E357A (Fc fusion)
chain: QVQLQESGGGSVQAGGSLRLSCAASEYIYSSYCMAWFRQAPGKEREGVAVIGSDGSTSYADSVKGRFTISKDNAKNTLYLQMNSLKPEDTAMYYCAAIGGYCYQPPYEYQYWGQGTQVTVSS[letters of human IgG1 Fc with C220S E357A T366S L368A Y407V K409A (EU numbers) omitted]
notes: Positions are EU index; also called combination 18 chain B
B4: VhH-Fc fusion protein chain B with D356C + T366S + L368A + Y407V + F405K (Fc fusion)
chain: QVQLQESGGGSVQAGGSLRLSCAASEYIYSSYCMAWFRQAPGKEREGVAVIGSDGSTSYADSVKGRFTISKDNAKNTLYLQMNSLKPEDTAMYYCAAIGGYCYQPPYEYQYWGQGTQVTVSS[letters of human IgG1 Fc with changes omitted]
notes: also called combination 4 chain B (VhH-Fc format)
B5: VhH-Fc fusion protein chain B with T366S + L368A + Y407V + D399S + F405K (Fc fusion)
chain: QVQLQESGGGSVQAGGSLRLSCAASEYIYSSYCMAWFRQAPGKEREGVAVIGSDGSTSYADSVKGRFTISKDNAKNTLYLQMNSLKPEDTAMYYCAAIGGYCYQPPYEYQYWGQGTQVTVSS[letters of human IgG1 Fc with C220S T366S L368A D399S F405K Y407V (EU numbers) omitted]
notes: Positions are EU index; also called combination 10 chain B

Assays:
[1] = target: the molecule itself; test: non-reducing SDS-PAGE densitometry of Protein A-purified co-transfection product; chain A:chain B vectors 1:1
Description: (§1) The cotransfection ratio of recombinant expression vector of the chain A to that of the chain B was 4:1, 1:1 and 1:4. The transiently expressed culture supernatant was collected after 5-6 days of cultivation.

[2] = target: the molecule itself; test: non-reducing SDS-PAGE densitometry of Protein A-purified co-transfection product; chain A:chain B vectors 4:1
Description: as §1

[3] = target: the molecule itself; test: non-reducing SDS-PAGE densitometry of Protein A-purified co-transfection product; chain A:chain B vectors 1:4
Description: as §1

[4] = target: the molecule itself; test: non-reducing SDS-PAGE densitometry of Protein A-purified co-transfection product; chain A:chain B vectors 4:1; remark: listed apart in the source
Description: (§2) The cotransfection ratio of recombinant expression vector of the chain A to that of the chain B was 4:1, 1:1 and 1:4.

[5] = target: the molecule itself; test: non-reducing SDS-PAGE densitometry of Protein A-purified co-transfection product; chain A:chain B vectors 1:4; remark: listed apart in the source
Description: as §2

[6] = target: the molecule itself; test: non-reducing SDS-PAGE densitometry of Protein A-purified co-transfection product; chain A:chain B vectors 1:1; remark: listed apart in the source
Description: as §2

| Protein | VhH-Fc homodimer (%) [1] [%] | VhH-Fc homodimer (%) [2] [%] | VhH-Fc homodimer (%) [3] [%] | VhH-Fc homodimer (%) [4] [%] | VhH-Fc homodimer (%) [5] [%] | VhH-Fc homodimer (%) [6] [%] |
| --- | --- | --- | --- | --- | --- | --- |
| B1 | 27 | 17 | 61 |  |  |  |
| B2 | 13 | 6 | 31 |  |  |  |
| B3 | 7 | 10 | 9 |  |  |  |
| B4 |  |  |  | < 1 | 53 | 19 |
| B5 |  |  |  | < 1 | 27 | 13 |
